# In the supplement of paper PMC8728848:
# Some of the results follow.
# B1: CLEC-1 (Homo sapiens), Q9NZH3 (protein)
# chain: MQAKYSSTRDMLDDDGDTTMSLHSQASATTRHPEPRRTEHRAPSSTWRPVALTLLTLCLVLLIGLAAWGLLFFQYYQLSNTGQDTISQMEERLGNTSQELQSLQVQNIKLAGSLQHVAEKLCRELYNKAGAHRCSPCTEQWKWHGDNCYQFYKDSKSWEDCKYFCLSENSTMLKINKQEDLEFAASQSYSEFFYSYWTGLLRPDSGKAWLWMDGTPFTSELFHIIIDVTSPRSRDCVAILNGMIFSKDCKELKRCVCERRAGMVKPESLHVPPETLGEGD
# Tests used:
# Test in all cases: glycan array binding signal (z-score within array); higher = stronger binding
# Settings in all cases: glycan notation: IUPAC condensed, linker removed
# [1] = target: Neu5Ac(a2-3)Gal(b1-3)GalNAc(b1-4)[Neu5Ac(a2-3)]Gal(b1-4)Glc
# Method in brief: (§1)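 The binding signal is a Z-score computed within each array and averaged over linkers. Arrays of the same protein sequence at different concentrations or buffers were also averaged together. Data originate from 3228 arrays in the Consortium for Functional Glycomics database, kept only where the protein sequence was available.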
# [2] = target: Neu5Ac(a2-3)Gal(b1-3)GalNAc6S
# Method in brief: as §1
# [3] = target: Neu5Ac(a2-3)Gal(b1-3)GlcNAc
# Method in brief: as §1
# [4] = target: Neu5Ac(a2-3)Gal(b1-3)GlcNAc(b1-2)Man(a1-3)[Neu5Ac(a2-3)Gal(b1-3)GlcNAc(b1-2)Man(a1-6)]Man(b1-4)GlcNAc(b1-4)GlcNAc
# Method in brief: as §1
# [5] = target: Neu5Ac(a2-3)Gal(b1-3)GlcNAc(b1-3)Gal(b1-3)GlcNAc
# Method in brief: as §1
# [6] = target: Neu5Ac(a2-3)Gal(b1-3)GlcNAc(b1-3)Gal(b1-4)GlcNAc
# Method in brief: as §1
# [7] = target: Neu5Ac(a2-3)Gal(b1-3)GlcNAc(b1-3)GalNAc
# Method in brief: as §1
# [8] = target: Neu5Ac(a2-3)Gal(b1-3)GlcNAc6S
# Method in brief: as §1
# [9] = target: Neu5Ac(a2-3)Gal(b1-3)[Fuc(a1-4)]GlcNAc
# Method in brief: as §1
# [10] = target: Neu5Ac(a2-3)Gal(b1-3)[Fuc(a1-4)]GlcNAc(b1-3)Gal(b1-3)[Fuc(a1-4)]GlcNAc
# Method in brief: as §1
# [11] = target: Neu5Ac(a2-3)Gal(b1-3)[Fuc(a1-4)]GlcNAc(b1-3)Gal(b1-4)[Fuc(a1-3)]GlcNAc
# Method in brief: as §1
# [12] = target: Neu5Ac(a2-3)Gal(b1-3)[Neu5Ac(a2-3)Gal(b1-4)]GlcNAc
# Method in brief: as §1
# [13] = target: Neu5Ac(a2-3)Gal(b1-3)[Neu5Ac(a2-6)]GalNAc
# Method in brief: as §1
# Neu5Ac(a2-3)Gal(b1-4)Glc = target: Neu5Ac(a2-3)Gal(b1-4)Glc
# Method in brief: as §1
# [14] = target: Neu5Ac(a2-3)Gal(b1-4)GlcNAc
# Method in brief: as §1
# [15] = target: Neu5Ac(a2-3)Gal(b1-4)GlcNAc(b1-2)Man(a1-3)[GlcNAc(b1-2)Man(b1-4)GlcNAc(b1-2)Man(a1-6)]Man(b1-4)GlcNAc(b1-4)GlcNAc
# Method in brief: as §1
# [16] = target: Neu5Ac(a2-3)Gal(b1-4)GlcNAc(b1-2)Man(a1-3)[Neu5Ac(a2-6)Gal(b1-4)GlcNAc(b1-2)Man(a1-6)]Man(b1-4)GlcNAc(b1-4)GlcNAc
# Method in brief: as §1
# [17] = target: Neu5Ac(a2-3)Gal(b1-4)GlcNAc(b1-3)Gal(b1-3)GlcNAc
# Method in brief: as §1
# [18] = target: Neu5Ac(a2-3)Gal(b1-4)GlcNAc(b1-3)Gal(b1-4)GlcNAc
# Method in brief: as §1
# [19] = target: Neu5Ac(a2-3)Gal(b1-4)GlcNAc(b1-3)Gal(b1-4)GlcNAc(b1-3)Gal(b1-4)GlcNAc
# Method in brief: as §1
# [20] = target: Neu5Ac(a2-3)Gal(b1-4)GlcNAc(b1-3)Gal(b1-4)[Fuc(a1-3)]GlcNAc
# Method in brief: as §1
# [21] = target: Neu5Ac(a2-3)Gal(b1-4)GlcNAc(b1-3)GalNAc
# Method in brief: as §1
# [22] = target: Neu5Ac(a2-3)Gal(b1-4)GlcNAc(b1-6)[Gal(b1-3)]GalNAc
# Method in brief: as §1
# [23] = target: Neu5Ac(a2-3)Gal(b1-4)GlcNAc(b1-6)[Neu5Ac(a2-3)Gal(b1-3)]GalNAc
# Method in brief: as §1
# [24] = target: Neu5Ac(a2-3)Gal(b1-4)GlcNAc6S
# Method in brief: as §1
# [25] = target: Neu5Ac(a2-3)Gal(b1-4)[Fuc(a1-3)]GlcNAc
# Method in brief: as §1
# [26] = target: Neu5Ac(a2-3)Gal(b1-4)[Fuc(a1-3)]GlcNAc(b1-3)Gal
# Method in brief: as §1
# [27] = target: Neu5Ac(a2-3)Gal(b1-4)[Fuc(a1-3)]GlcNAc(b1-3)Gal(b1-4)GlcNAc
# Method in brief: as §1
# [28] = target: Neu5Ac(a2-3)Gal(b1-4)[Fuc(a1-3)]GlcNAc(b1-3)Gal(b1-4)[Fuc(a1-3)]GlcNAc(b1-3)Gal(b1-4)[Fuc(a1-3)]GlcNAc
# Method in brief: as §1
# [29] = target: Neu5Ac(a2-3)Gal(b1-4)[Fuc(a1-3)]GlcNAc(b1-3)GalNAc
# Method in brief: as §1
# [30] = target: Neu5Ac(a2-3)Gal(b1-4)[Fuc(a1-3)]GlcNAc(b1-6)[Gal(b1-3)]GalNAc
# Method in brief: as §1
# [31] = target: Neu5Ac(a2-3)Gal(b1-4)[Fuc(a1-3)]GlcNAc(b1-6)[Neu5Ac(a2-3)Gal(b1-3)]GalNAc
# Method in brief: as §1
# [32] = target: Neu5Ac(a2-3)Gal(b1-4)[Fuc(a1-3)]GlcNAc6S
# Method in brief: as §1
# [33] = target: Neu5Ac(a2-3)Gal6S(b1-4)GlcNAc
# Method in brief: as §1
# [34] = target: Neu5Ac(a2-3)Gal6S(b1-4)[Fuc(a1-3)]GlcNAc
# Method in brief: as §1
# Neu5Ac(a2-3)GalNAc = target: Neu5Ac(a2-3)GalNAc
# Method in brief: as §1
# [35] = target: Neu5Ac(a2-3)GalNAc(b1-4)GlcNAc
# Method in brief: as §1
# [36] = target: Neu5Ac(a2-3)[GalNAc(b1-4)]Gal(b1-4)Glc
# Method in brief: as §1
# [37] = target: Neu5Ac(a2-3)[GalNAc(b1-4)]Gal(b1-4)GlcNAc
# Method in brief: as §1
# [38] = target: Neu5Ac(a2-3)[GalNAc(b1-4)]Gal(b1-4)GlcNAc(b1-3)GalNAc
# Method in brief: as §1
# [39] = target: Neu5Ac(a2-3)[Neu5Ac(a2-6)]GalNAc
# Method in brief: as §1
# Neu5Ac(a2-6)Gal = target: Neu5Ac(a2-6)Gal
# Method in brief: as §1
binder,measurement,setting,value
B1,glycan array binding signal (z-score),[1],-0.378
same,glycan array binding signal (z-score),[2],-0.175
same,glycan array binding signal (z-score),[3],-0.199
same,glycan array binding signal (z-score),[4],-0.325
same,glycan array binding signal (z-score),[5],-0.25
same,glycan array binding signal (z-score),[6],-0.576
same,glycan array binding signal (z-score),[7],-0.439
same,glycan array binding signal (z-score),[8],-0.373
same,glycan array binding signal (z-score),[9],-0.39
same,glycan array binding signal (z-score),[10],-0.196
same,glycan array binding signal (z-score),[11],-0.255
same,glycan array binding signal (z-score),[12],-0.558
same,glycan array binding signal (z-score),[13],0.011
same,glycan array binding signal (z-score),Neu5Ac(a2-3)Gal(b1-4)Glc,-0.377
same,glycan array binding signal (z-score),[14],-0.451
same,glycan array binding signal (z-score),[15],-0.588
same,glycan array binding signal (z-score),[16],-0.284
same,glycan array binding signal (z-score),[17],-0.293
same,glycan array binding signal (z-score),[18],-0.229
same,glycan array binding signal (z-score),[19],-0.383
same,glycan array binding signal (z-score),[20],-0.157
same,glycan array binding signal (z-score),[21],-0.713
same,glycan array binding signal (z-score),[22],-0.136
same,glycan array binding signal (z-score),[23],-0.142
same,glycan array binding signal (z-score),[24],-0.276
same,glycan array binding signal (z-score),[25],-0.145
same,glycan array binding signal (z-score),[26],-0.28
same,glycan array binding signal (z-score),[27],-0.048
same,glycan array binding signal (z-score),[28],-0.397
same,glycan array binding signal (z-score),[29],2.82
same,glycan array binding signal (z-score),[30],0.591
same,glycan array binding signal (z-score),[31],-0.268
same,glycan array binding signal (z-score),[32],-0.409
same,glycan array binding signal (z-score),[33],-0.086
same,glycan array binding signal (z-score),[34],-0.34
same,glycan array binding signal (z-score),Neu5Ac(a2-3)GalNAc,-0.178
same,glycan array binding signal (z-score),[35],-0.187
same,glycan array binding signal (z-score),[36],0.478
same,glycan array binding signal (z-score),[37],0.582
same,glycan array binding signal (z-score),[38],0.358
same,glycan array binding signal (z-score),[39],-0.331
same,glycan array binding signal (z-score),Neu5Ac(a2-6)Gal,-0.089
